# Data reported in patent US20240262930A1.
# Molecular target: MUC1-C antigen (human) (UniProt P15941)
# Assay: ELISA on MUC1-C antigen, antibody at 1 ug/ml
# Chain of UniProt P15941 (P15941 1098-1155 limits assumed): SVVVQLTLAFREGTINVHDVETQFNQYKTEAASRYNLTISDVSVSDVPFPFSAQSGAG
binder,measurement,value
"3D1 (antibody, from another filing, V domains shown) VH: QVQLQQSGAELVRPGSSVKISCKTSGYAFSNFWMNWVKQRPGQGLEWIGQIYPGDGDTNYNGKFKGKATLTADKSSSTAYMQLSSLTSEASAVYFCARSYYRSAWFAYWGQGTLVSVSA VL: DILLTQSPAILSVSPGERVSFS[about 80 residues left out here]FGAGTKLELK",OD,2.68 OD and 2.79 OD

# “And” between values parts separate entries of the source, which are not always exact repeats. Equal values may be shown once.
